Laboratory results from patent US20230138178A1, “Methods and Compositions for Producing a Heterologous Antiviral Compound in a Host Cell” (priority 2019, published 2023).

Test system: murine bone marrow-derived macrophages (BMDMs)
Experiment: Transcriptional profiling of BMDMs (Nanostring)
Conditions: 1 mM ddhC, RNA at 8 and 24 hours

Nc1ccn([C@@H]2OC(CO)=C[C@H]2O)c(=O)n1 [ddhC]
expression profile of BMDMs: adopt expression profiles typically associated with anti-inflammatory phenotypes
